Experimental data published in article PMC10726135.
The list shows a part of the results. At the low end of the ranking the order means little. Measured with an extract: partners may take part in the binding.

molecular target: T1, HNF4alpha2 (COS-7 nuclear extract) (UniProt P41235); experiment: protein-binding microarray; settings: COS-7 nuclear extract on double-stranded Agilent 4x180k PBM; binding buffer, salt, pH and temperature not given; high values mean tight binding; double strand, one strand shown; sequences stand for … in …GCCTAGGGAGATTAGAGTATCGGTCGA
T1 sequence: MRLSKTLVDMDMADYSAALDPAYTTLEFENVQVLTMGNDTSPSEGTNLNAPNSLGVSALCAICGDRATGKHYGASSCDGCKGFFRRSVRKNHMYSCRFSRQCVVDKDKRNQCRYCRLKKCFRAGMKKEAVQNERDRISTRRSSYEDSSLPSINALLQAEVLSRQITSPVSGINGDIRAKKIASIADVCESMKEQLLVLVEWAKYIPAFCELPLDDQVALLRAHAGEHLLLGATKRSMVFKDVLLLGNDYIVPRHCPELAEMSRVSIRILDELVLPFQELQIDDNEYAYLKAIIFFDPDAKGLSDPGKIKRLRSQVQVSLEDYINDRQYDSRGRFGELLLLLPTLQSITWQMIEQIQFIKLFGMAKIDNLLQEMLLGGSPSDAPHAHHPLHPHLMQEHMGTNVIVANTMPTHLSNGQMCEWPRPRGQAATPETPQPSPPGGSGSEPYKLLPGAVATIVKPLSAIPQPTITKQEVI

Sequence | binding signal (log2 normalized intensity)
GATAGATGCTGCTCTCCCACTCCCCCTGCT | 3.86
TGCTTCCAAGTTATGCAGACCTTTGCCCTT | 7.17
CCTGCCCTTTGCTCCAGAGGAAGATATTAT | 1.81
AAGTTTGGTAAGCAGACCCCTACTGGGGAT | -0.74
TCAGCAGGATTTGTTTGATTTAGGACTTAC | 0.991
GGCCCCTCTCTTTTATTATATTGAATTCCT | 0.242
GGATTAGCGATCATGGGTGACCCGTTAAGA | 1.36
CCGTCCCAAGCTGAGGTCTGGTGTCCAGTT | 1.2
TTCATCATGATTGTAGCCAAACTCACAGCT | -0.386
ACTCAAGATAGAGGGCTGCCAAAGCTCACA | -1.14
GTACTTAAAAATGCCTTTCATCTTTGAGAA | -0.717
TGGACTAGGCAAAAGACAGTGATTGTCACA | -1.13
CCTGTTCAAACTAAACCTAAAGATTCTAAG | -1.11
CTTCATCTTCAATACAGAGTCCAAATTCCT | 3.25
AATACATAAAGTCCAAACCCCTATGTTTAA | 2.11
GCGGGGCCTCCCAGTGGTATGCCTCTGGGT | -0.781
AGGGGTTAACCTCTATTGACCTTCTTATTT | 2.97
AGAGATTAAAGGTCAAGCCCAACCAAAGTA | 3.11
AAGGAAGGTGGGGGCCGCCCATTGGGATCC | -1.1
GCCCTTTGGATTTAGGCAGTTTTTGATCAA | 1.83
CCAGGGAACAAGGGGTGGATCTCTGTCATG | -0.992
AGAGCAGGTGCTCGGTGAGTGCTTCTTGAA | -1.09
ACTGCACACCGTCCAGAGGCTCCAAAGGAC | -0.959
AAAAGGCCGTTCAAAGGCAGCCTTCGTTTG | -1.15

Sequence | binding signal (log2 normalized intensity)
GGCAGGGCCAGATAAAGCAGGTTGTACCTT | 2.4
ATGATACCCCAGAGTACAGCACTTTGGCGT | 1.53
GCCACCCTCCTCTCTGGGTCAAAGGTCATC | 9.58
GGGAAACACAGACTCCAAAGAATGGAAGGC | -0.871
AATTTGACCTCATTTGCTCCCAGTGCACAC | 0.992
AGGGCAAGGGACAGGGGCCCAAGATAAAGG | -0.869
GTTGACCACCTGCCCCAGGAATGCCTTTTC | 1.99
CACTTCCCGAGTGAGGCAATGCCTCGCCCT | -1.29
ACCAAGGGTCATGCTGGTCTCCTTGCCCCA | 1.74
GGGTGGCCCTCTCCCGGGGAGGTCAACCAG | 2.58
AGAAGCCAGGGACCAGGAAGGCAGTAAGAG | -1.17
GAATGCTTGTCTAGTAATTGCTACTTCCGG | -0.366
TGATGTTAACACAAGTTATTACCGTGATGT | 1.48
AGTTTTTACTGGACTTGATCCATTCTACCC | 1.04
AGAAAACGTTCACGTCTCAAGCTTCAGGAG | -1.12
CCCTCCCACGCACTCGCCTGACTCCCTGAC | 2.16
CAAGCCCCTGACCAAGGGTCATGCTGGTCT | 2.29
GGACTTGGTAAAGTCAATAATCTAGAAACC | -1.15
ACACTTAGAGATAAGGTAACAGGCCAAAGG | 0.838
GGTGTGGGGGTGGAGAAGGAAGGGGAAGAT | -1.07
ACCCAAGCGGCCATTTACTGACTAAAGGTT | 1.18
GAATTTTGGACAAGGTAACCCCCAACATTC | 3.38
GAAAATGCAAGGAAATGGATTGCCTCCTAA | -1
GTTGAATGGACGGACAGGTAACGTAAACAA | -1.22

Sequence | binding signal (log2 normalized intensity)
CTTCCCAGCTGCTGGTCAAAGGGCATTACT | 4.94
GACCCCTTTCATGAATAAATGACATAGTGA | 1.7
CTTCTCTTTGAGTCCCAATCCCCCATCTAT | 4.08
GGATGTGTGATCTTGGGTAAGCCACTGAAC | 1.39
ATATGTCTTAAGCTAACATGTACAGTATTG | 1.07
GTGGCCAGGCTGCGTTTCAAAGCCAGGACT | -1.13
TTTTGTGTTAGAGGGTGGTGGGTGAAGGAT | 1.47
TTCATAACCAAAGGATTATTACATGTTTAC | 0.956
AATACTCTGAGTAAACACAGACTTTGGAAT | 3.65
AGAAGCTCCAGAAATACAGAAGCTGCTCTA | -1.18
CTATCACTGGGAGATAATGCACTGGTGACT | 0.519
TTACAGGTTGCAGTAAAGAAACTGGCTAAA | -1.07
GAAAACAGAGAAGCCGTGGTGCTGTCCAAG | -1.15
GACATTCCAGCCACTAAGAAGCCCAAGGTT | -1.11
GGAAAGATCAGCTGAAAACTATGCATGCTG | -1.01
AGGACGTCAGGCAGAGAGGGACTCTGACCC | 5.03
AATCAGGAGCAAAGGTTGGGGGTGGGGAGG | -0.62
CCACTGAGGTCAAGATAAGATACGAAGGGT | -0.974
CCAGTTGAGTGCAAAGTCCCTAGAAGGGAT | 1.44
ACTCTCAATTCAAGTATGCACCCTTATCAG | 0.0675
GGTAGAGGGACACTGATAACATGAGGATAC | -1.2
GTGAACTGTGACCTGATGACAAAGGTGAGA | 1.6
TCCAAATACGATAATGTCAAACATCTTATA | -1.15
ACCCCTGAATTGGTCATAATTCTCAAACTT | 0.56

Sequence | binding signal (log2 normalized intensity)
TTTGCGGCCATCTAGCTACAGGAGAACAAA | -1.13
TAAATGAGAAGAAATGATGGGTGCCACTTC | -1.13
ACAGCACTGACCTTTGAGAGTCAACACTGA | 2.58
TGAGGCCAGTTTTCCCAAAGGAGCTTTATT | -1.06
GTTCAGGGAAGAGGGCACTCAGGCTCTCAG | -1.05
AAGATGCAACCCCGTTTACTTTTGTACACA | 1.6
AGCTGTGTGCTCCTGTAGAATGACCCCCTG | 5.17
GCATTAACATCAACATGGACTTTGAGTCAT | 6.21
AGAGCAAGGGTCCAGATTAGAGCACAATGT | 0.344
CCAGCTGGTAAGTGCAAGGCCCAGCTAGAA | -1.12
AGTAAGCATGCCTTACCATTGCTTTCTTCC | -1.18
GTGGTCCTAAAATTGACCTTTGATCACTCA | 9.68
GACCTTCACCAGATACTGAATCTCCCAGTG | -1.18
CACACCTCCCTTGCACCAGTTTCTCAACAG | -1.25
AGCCAAGGAGAGAGGCCTCTAGATAAACCA | -1.15
TGCAAACATTGGTTGCAAAAACAATCAGGG | -1.29
GCTTTTGGGCAGAGACTATGTGGTTTTGTA | 1.54
GACCTCTGGACCTCATCTTCCTCCCCAATA | 4.37
CCCCTAGTATATTGGCTTGGCTGTGTCCCT | 1.67
CTCAGGTCAGGGAAGACTGATAAGAAAACT | -0.891
TAAGGTGGGAATGCTGATCAAGTGTCTCTA | 0.762
